# Experimental data: the supplement of paper PMC8728848
# Some of the results follow.
# Experiments:
# Test in all cases: glycan array binding signal (z-score within array); higher = stronger binding
# Details in all cases: glycan notation: IUPAC condensed, linker removed
# [1] = target: GlcNAc(b1-2)Gal(b1-3)GalNAc
# How it was run: (§1)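 Glycan array data came from 3228 arrays in the Consortium for Functional Glycomics database, and only arrays with an available protein sequence were kept. Glycan names were put into IUPAC-condensed notation, and columns mapping to the same glycan were averaged. The binding signal is a within-array Z-score, averaged across arrays of one protein sequence run at different concentrations or buffers and across linkers. A negative Z-score can be read as non-binding.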
# [2] = target: GlcNAc(b1-2)Man(a1-3)[GlcNAc(b1-2)Man(a1-6)]Man(b1-4)GlcNAc(b1-4)GlcNAc
# How it was run: as §1
# [3] = target: GlcNAc(b1-2)Man(a1-3)[GlcNAc(b1-2)Man(a1-6)]Man(b1-4)GlcNAc(b1-4)[Fuc(a1-6)]GlcNAc
# How it was run: as §1
# [4] = target: GlcNAc(b1-2)Man(a1-3)[GlcNAc(b1-4)][GlcNAc(b1-2)Man(a1-6)]Man(b1-4)GlcNAc(b1-4)GlcNAc
# How it was run: as §1
# [5] = target: GlcNAc(b1-2)Man(a1-3)[GlcNAc(b1-4)][GlcNAc(b1-2)Man(a1-6)]Man(b1-4)GlcNAc(b1-4)[Fuc(a1-6)]GlcNAc
# How it was run: as §1
# [6] = target: GlcNAc(b1-2)[GlcNAc(b1-4)]Man(a1-3)[GlcNAc(b1-2)Man(a1-6)]Man(b1-4)GlcNAc(b1-4)GlcNAc
# How it was run: as §1
# [7] = target: GlcNAc(b1-2)[GlcNAc(b1-4)]Man(a1-3)[GlcNAc(b1-4)][GlcNAc(b1-2)Man(a1-6)]Man(b1-4)GlcNAc(b1-4)GlcNAc
# How it was run: as §1
# [8] = target: GlcNAc(b1-2)[GlcNAc(b1-4)]Man(a1-3)[GlcNAc(b1-4)][GlcNAc(b1-2)[GlcNAc(b1-6)]Man(a1-6)]Man(b1-4)GlcNAc(b1-4)GlcNAc
# How it was run: as §1
# [9] = target: GlcNAc(b1-2)[GlcNAc(b1-4)]Man(a1-3)[GlcNAc(b1-4)][GlcNAc(b1-2)[GlcNAc(b1-6)]Man(a1-6)]Man(b1-4)GlcNAc(b1-4)[Fuc(a1-6)]GlcNAc
# How it was run: as §1
# [10] = target: GlcNAc(b1-2)[GlcNAc(b1-6)]Man(a1-6)[GlcNAc(b1-2)Man(a1-3)]Man(b1-4)GlcNAc(b1-4)GlcNAc
# How it was run: as §1
# [11] = target: GlcNAc(b1-2)[GlcNAc(b1-6)]Man(a1-6)[GlcNAc(b1-2)Man(a1-3)]Man(b1-4)GlcNAc(b1-4)[Fuc(a1-6)]GlcNAc
# How it was run: as §1
# [12] = target: GlcNAc(b1-2)[GlcNAc(b1-6)]Man(a1-6)[GlcNAc(b1-4)][GlcNAc(b1-2)Man(a1-3)]Man(b1-4)GlcNAc(b1-4)GlcNAc
# How it was run: as §1
# GlcNAc(b1-3)Fuc = target: GlcNAc(b1-3)Fuc
# How it was run: as §1
# GlcNAc(b1-3)Gal = target: GlcNAc(b1-3)Gal
# How it was run: as §1
# [13] = target: GlcNAc(b1-3)Gal(b1-3)GalNAc
# How it was run: as §1
# GlcNAc(b1-3)Gal(b1-4)Glc = target: GlcNAc(b1-3)Gal(b1-4)Glc
# How it was run: as §1
# [14] = target: GlcNAc(b1-3)Gal(b1-4)GlcNAc
# How it was run: as §1
# [15] = target: GlcNAc(b1-3)Gal(b1-4)GlcNAc(b1-2)Man(a1-3)[GlcNAc(b1-3)Gal(b1-4)GlcNAc(b1-2)Man(a1-6)]Man(b1-4)GlcNAc(b1-4)GlcNAc
# How it was run: as §1
# [16] = target: GlcNAc(b1-3)Gal(b1-4)GlcNAc(b1-2)Man(a1-3)[GlcNAc(b1-3)Gal(b1-4)GlcNAc(b1-2)Man(a1-6)]Man(b1-4)GlcNAc(b1-4)[Fuc(a1-6)]GlcNAc
# How it was run: as §1
# [17] = target: GlcNAc(b1-3)Gal(b1-4)GlcNAc(b1-2)[GlcNAc(b1-3)Gal(b1-4)GlcNAc(b1-6)]Man(a1-6)[GlcNAc(b1-3)Gal(b1-4)GlcNAc(b1-2)Man(a1-3)]Man(b1-4)GlcNAc(b1-4)GlcNAc
# How it was run: as §1
# [18] = target: GlcNAc(b1-3)Gal(b1-4)GlcNAc(b1-3)Gal(b1-4)GlcNAc
# How it was run: as §1
# [19] = target: GlcNAc(b1-3)Gal(b1-4)GlcNAc(b1-3)Gal(b1-4)GlcNAc(b1-2)Man(a1-3)[GlcNAc(b1-3)Gal(b1-4)GlcNAc(b1-3)Gal(b1-4)GlcNAc(b1-2)Man(a1-6)]Man(b1-4)GlcNAc(b1-4)GlcNAc
# How it was run: as §1
# [20] = target: GlcNAc(b1-3)Gal(b1-4)GlcNAc(b1-3)Gal(b1-4)GlcNAc(b1-2)Man(a1-3)[GlcNAc(b1-3)Gal(b1-4)GlcNAc(b1-3)Gal(b1-4)GlcNAc(b1-2)Man(a1-6)]Man(b1-4)GlcNAc(b1-4)[Fuc(a1-6)]GlcNAc
# How it was run: as §1
# [21] = target: GlcNAc(b1-3)Gal(b1-4)GlcNAc(b1-3)Gal(b1-4)GlcNAc(b1-2)[GlcNAc(b1-3)Gal(b1-4)GlcNAc(b1-3)Gal(b1-4)GlcNAc(b1-6)]Man(a1-6)[GlcNAc(b1-3)Gal(b1-4)GlcNAc(b1-3)Gal(b1-4)GlcNAc(b1-2)Man(a1-3)]Man(b1-4)GlcNAc(b1-4)[Fuc(a1-6)]GlcNAc
# How it was run: as §1
# [22] = target: GlcNAc(b1-3)Gal(b1-4)GlcNAc(b1-3)Gal(b1-4)GlcNAc(b1-3)Gal(b1-4)GlcNAc(b1-2)Man(a1-3)[GlcNAc(b1-3)Gal(b1-4)GlcNAc(b1-3)Gal(b1-4)GlcNAc(b1-3)Gal(b1-4)GlcNAc(b1-2)Man(a1-6)]Man(b1-4)GlcNAc(b1-4)GlcNAc
# How it was run: as §1
# [23] = target: GlcNAc(b1-3)Gal(b1-4)GlcNAc(b1-3)Gal(b1-4)GlcNAc(b1-3)Gal(b1-4)GlcNAc(b1-2)Man(a1-3)[GlcNAc(b1-3)Gal(b1-4)GlcNAc(b1-3)Gal(b1-4)GlcNAc(b1-3)Gal(b1-4)GlcNAc(b1-2)Man(a1-6)]Man(b1-4)GlcNAc(b1-4)[Fuc(a1-6)]GlcNAc
# How it was run: as §1
# [24] = target: GlcNAc(b1-3)Gal(b1-4)GlcNAc(b1-3)Gal(b1-4)GlcNAc(b1-3)Gal(b1-4)GlcNAc(b1-2)[GlcNAc(b1-3)Gal(b1-4)GlcNAc(b1-3)Gal(b1-4)GlcNAc(b1-3)Gal(b1-4)GlcNAc(b1-6)]Man(a1-6)[GlcNAc(b1-3)Gal(b1-4)GlcNAc(b1-3)Gal(b1-4)GlcNAc(b1-3)Gal(b1-4)GlcNAc(b1-2)Man(a1-3)]Man(b1-4)GlcNAc(b1-4)[Fuc(a1-6)]GlcNAc
# How it was run: as §1
# [25] = target: GlcNAc(b1-3)Gal(b1-4)GlcNAc(b1-3)Gal(b1-4)GlcNAc(b1-3)Gal(b1-4)GlcNAc(b1-3)Gal(b1-4)GlcNAc(b1-2)Man(a1-3)[GlcNAc(b1-3)Gal(b1-4)GlcNAc(b1-3)Gal(b1-4)GlcNAc(b1-3)Gal(b1-4)GlcNAc(b1-3)Gal(b1-4)GlcNAc(b1-2)Man(a1-6)]Man(b1-4)GlcNAc(b1-4)GlcNAc
# How it was run: as §1
# [26] = target: GlcNAc(b1-3)Gal(b1-4)GlcNAc(b1-3)Gal(b1-4)GlcNAc(b1-3)Gal(b1-4)GlcNAc(b1-3)Gal(b1-4)GlcNAc(b1-2)Man(a1-3)[GlcNAc(b1-3)Gal(b1-4)GlcNAc(b1-3)Gal(b1-4)GlcNAc(b1-3)Gal(b1-4)GlcNAc(b1-3)Gal(b1-4)GlcNAc(b1-2)Man(a1-6)]Man(b1-4)GlcNAc(b1-4)[Fuc(a1-6)]GlcNAc
# How it was run: as §1
# [27] = target: GlcNAc(b1-3)Gal(b1-4)GlcNAc(b1-3)Gal(b1-4)GlcNAc(b1-3)Gal(b1-4)GlcNAc(b1-3)Gal(b1-4)GlcNAc(b1-2)[GlcNAc(b1-3)Gal(b1-4)GlcNAc(b1-3)Gal(b1-4)GlcNAc(b1-3)Gal(b1-4)GlcNAc(b1-3)Gal(b1-4)GlcNAc(b1-6)]Man(a1-6)[GlcNAc(b1-3)Gal(b1-4)GlcNAc(b1-3)Gal(b1-4)GlcNAc(b1-3)Gal(b1-4)GlcNAc(b1-3)Gal(b1-4)GlcNAc(b1-2)Man(a1-3)]Man(b1-4)GlcNAc(b1-4)[Fuc(a1-6)]GlcNAc
# How it was run: as §1
# [28] = target: GlcNAc(b1-3)Gal(b1-4)GlcNAc(b1-3)Gal(b1-4)GlcNAc(b1-3)GalNAc
# How it was run: as §1
# [29] = target: GlcNAc(b1-3)Gal(b1-4)GlcNAc(b1-3)GalNAc
# How it was run: as §1
# [30] = target: GlcNAc(b1-3)Gal(b1-4)GlcNAc(b1-3)[GlcNAc(b1-3)Gal(b1-4)GlcNAc(b1-3)]GalNAc
# How it was run: as §1
# [31] = target: GlcNAc(b1-3)Gal(b1-4)GlcNAc(b1-6)[Gal(b1-3)]GalNAc
# How it was run: as §1
# [32] = target: GlcNAc(b1-3)Gal(b1-4)GlcNAc(b1-6)[GlcNAc(b1-3)Gal(b1-3)]GalNAc
# How it was run: as §1
# [33] = target: GlcNAc(b1-3)Gal(b1-4)GlcNAc(b1-6)[GlcNAc(b1-3)]Gal(b1-4)GlcNAc
# How it was run: as §1
# GlcNAc(b1-3)GalNAc = target: GlcNAc(b1-3)GalNAc
# How it was run: as §1
binder,measurement,setting,value
Cohesin-hDC-ASGPR (Homo sapiens) (protein) LDDLDAVRIKVDTVNAKPGDTVRIPVRFSGIPSKGIANCDFVYSYDPNVLEIIEIEPGDIIVDPNPDKSFDTAVYPDRKIIVFLFAEDSGTGAYAITKDGVFATIVAKVKEGAPNGLSVIKFVEVGGFANNDLVEQKTQFFDGGANVGDTTEPATPTTPVTTPTTTDDLDAASQNSKFQRDLVTLRTDFSNFTSNTVAEIQALTSQGSSLEETIASLKAEVEGFKQERQAGVSELQEHTTQKAHLGHCPHCPSVCVPVHSEMLLRVQQLVQDLKKLTCQVATLNNNASTEGTCCPVNWVEHQDSCYWFSHSGMSWAEAEKYCQLKNAHLVVINSREEQNFVQKYLGSAYTWMGLSDPEGAWKWVDGTDYATGFQNWKPGQPDDWQGHGLGGGEDCAHFHPDGRWNDDVCQRPYHWVCEAGLGQTSQESHHHHHH,glycan array binding signal (z-score),[1],-0.345
same,glycan array binding signal (z-score),[2],-0.389
same,glycan array binding signal (z-score),[3],-0.488
same,glycan array binding signal (z-score),[4],-0.463
same,glycan array binding signal (z-score),[5],-0.508
same,glycan array binding signal (z-score),[6],-0.498
same,glycan array binding signal (z-score),[7],-0.471
same,glycan array binding signal (z-score),[8],-0.498
same,glycan array binding signal (z-score),[9],-0.51
same,glycan array binding signal (z-score),[10],-0.378
same,glycan array binding signal (z-score),[11],-0.503
same,glycan array binding signal (z-score),[12],-0.497
same,glycan array binding signal (z-score),GlcNAc(b1-3)Fuc,-0.443
same,glycan array binding signal (z-score),GlcNAc(b1-3)Gal,-0.503
same,glycan array binding signal (z-score),[13],-0.446
same,glycan array binding signal (z-score),GlcNAc(b1-3)Gal(b1-4)Glc,-0.501
same,glycan array binding signal (z-score),[14],-0.507
same,glycan array binding signal (z-score),[15],-0.48
same,glycan array binding signal (z-score),[16],-0.301
same,glycan array binding signal (z-score),[17],-0.358
same,glycan array binding signal (z-score),[18],-0.504
same,glycan array binding signal (z-score),[19],-0.165
same,glycan array binding signal (z-score),[20],-0.36
same,glycan array binding signal (z-score),[21],-0.475
same,glycan array binding signal (z-score),[22],-0.506
same,glycan array binding signal (z-score),[23],-0.394
same,glycan array binding signal (z-score),[24],-0.49
same,glycan array binding signal (z-score),[25],-0.443
same,glycan array binding signal (z-score),[26],-0.435
same,glycan array binding signal (z-score),[27],-0.48
same,glycan array binding signal (z-score),[28],-0.501
same,glycan array binding signal (z-score),[29],-0.458
same,glycan array binding signal (z-score),[30],-0.455
same,glycan array binding signal (z-score),[31],-0.442
same,glycan array binding signal (z-score),[32],-0.499
same,glycan array binding signal (z-score),[33],-0.461
same,glycan array binding signal (z-score),GlcNAc(b1-3)GalNAc,-0.466
